Values joined by “and” are separate entries in the source; they are usually repeats but may differ in a detail not shown here. Identical values can stand only once. Among all 360,000 compounds or so, about 2,600 (0.72%) were called active. Inconclusive results, whose numbers are uncertain, are shown with a selection of clear calls. Calls follow the shape of the dose curve; as a rule, active = well fitted inhibition curve with a large enough effect; inconclusive = small, poorly fitted or top-dose-only effect; inactive = no such curve, though single readings can be large or run the other way. Potencies beside an inconclusive call are fits to weak or partial responses and may not hold up.
Assay: Primary qHTS for Inhibitors of ATXN expression; also: nearly all actives have a fitted effect of over 55% in size
Details: HEK-293 ATXN2-luciferase reporter, luminescence, 24 h; activity change, negative = inhibition: at 57 µM (top of the series)
Method in brief: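 qHTS (up to 57 uM final) was run with 24 h compound exposure of reporter cells at 37 °C. Each well was multiplexed: SteadyGlo luminescence measured ATXN2-luciferase expression after a fluorogenic Gly-Phe-AFC viability readout (25 uM final).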
% is scaled to controls: 0 for no effect and ±100 for the full control effect; potency is read from the fitted curve at half-maximal effect; tags tell the direction and shape of the fitted curve.

SMILES | Potency | activity change, negative = inhibition
Cc1ccc(OCC(=O)N(Cc2cccs2)C2CCS(=O)(=O)C2)cc1C (stereo not drawn) | inconclusive: 0.947 µM [inhibitor, full curve, poor fit] | –
Cc1c(C(=O)NNC(=S)NCc2ccc(Cl)cc2)oc2ccccc12 | – | inactive: -6.22%
COc1cccc(/C=N/NC(=O)c2nc(-c3ccccc3)cc(-c3ccccc3)n2)c1O | active: 10 µM | –
COc1cccc(-c2cc(C(=O)Nc3cc(C)nn3-c3ccccc3)no2)c1 | inconclusive: 22.4 µM [inhibitor, partial curve, poor fit] | –
O=C(CCc1ccc(S(=O)(=O)N2CCOCC2)cc1)Nc1nc(COc2ccccc2)cs1 | inconclusive: 31.6 µM [inhibitor, single point] | –
Cc1sc2ncnc(N3CCC(C(=O)NCC(=O)Nc4ccc(F)c(F)c4)CC3)c2c1C | inconclusive: 39.8 µM [inhibitor, single point] | –
COc1cc(OC)cc(C(=O)Nc2ccc3oc(-c4ccccc4C)nc3c2)c1 | inconclusive: 31.6 µM [inhibitor, single point] | –
O=C(NNC(=O)C1CCN(Cc2cccc(F)c2)CC1)c1cccc(Cl)c1 | inconclusive: 39.8 µM [inhibitor, single point] | –
CCC1C(=NO)C(CC)C(c2ccccc2)NC1c1ccccc1 (stereo not drawn) | inconclusive: 37.7 µM [inhibitor, single point] | –
Oc1c(Br)cc(Br)cc1/C=N/c1nccs1 | inconclusive: 13.4 µM [inhibitor, partial curve, poor fit] | –
COc1ccc(C(=O)NC(=C(Cl)Cl)S(=O)(=O)c2ccc(C)cc2)cc1 | inconclusive: 31.6 µM [inhibitor, single point] | –
COc1cc(C(=O)Oc2ccccc2/C=N/NC(=O)c2ccc(C)c(Cl)c2)cc(OC)c1OC | inconclusive: 3.55 µM [inhibitor, full curve] | –
COc1ccc(-n2c(SCCNCCO)nc3sc4c(c3c2=O)CCCC4)cc1 | – | inconclusive: -65.7% [inhibitor]
O=C(CCS(=O)(=O)c1cc(Br)cc2c1N(C(=O)C1CC1)CC2)N1CCN(c2ccc(F)cc2)CC1 | – | inactive: -13.9%
COc1ccc(N2CC(C)(C)[C@H](CC(=O)Nc3ccccc3)C2=O)cc1 | – | inactive: 12.7%
CC(C)n1cnc2c(NCCc3ccc(O)cc3)nc(-c3csc4ccccc34)nc21 | inconclusive: 27.3 µM [inhibitor, single point] | –
O=C(NCc1ccccc1)c1ccc(/C=N/O)nc1 | – | inactive: 1.73%
Cc1cc(C)c(S(=O)(=O)N2CCN(C(=O)c3ccccc3OCc3c(C)noc3C)CC2)c(C)c1 | – | inactive: -15.2%
COc1cccc(C(=O)CC2(O)C(=O)Nc3ccc(Cl)cc32)c1 (stereo not drawn) | – | inactive: 0.937%
Cc1cc(Cl)ccc1OCC(=O)NNC(=O)c1cnccn1 | – | inconclusive: -54.9% [inhibitor]
CC(=O)c1c(C)oc2c1C(=O)c1ccccc1C2=O | inconclusive: 14.1 µM [inhibitor, partial curve] | –

SMILES | Potency | activity change, negative = inhibition
CCOc1ccccc1CN1CCc2nc(N3CCN(c4ccccc4F)CC3)ncc2C1 | inconclusive: 20 µM [inhibitor, partial curve, poor fit] | –
COc1ccc(CCNC(=O)c2cc(C)nc3c2c(C)nn3-c2ccc(C)cc2)cc1OC | – | inactive: -20%
O=C1c2ccccc2-c2onc3ccc(NCCCn4ccnc4)c1c23 | inconclusive: 31.6 µM [inhibitor, partial curve, poor fit] | –
CN1C[C@@H]2[C@@H]3C(=O)N(Cc4ccccc4)C(=O)[C@@H]3[C@](Cc3ccccc3)(C1=O)N2C(=O)c1ccc(Cl)c(Cl)c1 | inconclusive: 31.6 µM [inhibitor, single point] | –
CC[C@@H](C)[C@H](CN[C@H](CNC)C(C)C)NC[C@@H](C)c1ccc(CC(C)C)cc1 | active: 28.2 µM | –
C[C@H](CO)N1C[C@H](C)[C@@H](CN(C)Cc2ccc(C(=O)Nc3ccccc3N)cc2)Oc2c(NC(=O)C3CCCCC3)cccc2C1=O | inconclusive: 28.2 µM [inhibitor, single point] | –
O=C(N/N=C1\CCSc2ccc(F)cc21)c1cccnc1 | – | inactive: -6.75%
CCOC(=O)c1cnc2ccccc2c1Nc1cc(C(=O)O)ccc1C | – | inactive: -29%
COc1ccccc1CCNC(=O)C(=O)NCC(c1cccs1)S(=O)(=O)c1ccc(C)cc1 (stereo not drawn) | – | inactive: -1.98%
COC(=O)[C@@]1(Cc2ccccc2)[C@@H]2C(=CC(=O)[C@H]2CC(=O)C(=O)N(C)C)CN1C(=O)c1ccccc1 | active: 28.2 µM | –
C=C1C(=O)[C@]23C[C@H]1CCC2[C@@]1(C)C(C[C@@H]3O)[C@](C)(C(=O)O)CC[C@@H]1O (stereo partly drawn) | inconclusive: 20 µM [inhibitor, partial curve, poor fit] | –
C=CC[C@H](CC(=O)N[C@H](CO)Cc1ccccc1)C(=O)N[C@H](COC(=O)[C@H](CC=C)CC(=O)OC(C)(C)C)Cc1c[nH]c2ccccc12 | inconclusive: 39.8 µM [inhibitor, single point] | –
COCCCNC(=S)N1CCN(c2nc(-c3ccccc3)cs2)CC1 | inconclusive: 2.38 µM [inhibitor, partial curve, poor fit] | –
Nc1ccc2c(c1)C(=NO)c1cc([N+](=O)[O-])ccc1-2 | inconclusive: 14.1 µM [inhibitor, partial curve] | –
Cc1ccc2c(CNCc3ccccc3)cc(=O)oc2c1 | inconclusive: 5.97 µM [inhibitor, partial curve, poor fit] | –
CC(C)C[C@@H](CN1CCC[C@H]1CN1C(=O)C(=O)NC[C@@H]1Cc1ccccc1)N1C[C@H](Cc2ccc(O)cc2)N(CC2CCCCCC2)C(=O)C1=O | inconclusive: 39.8 µM [inhibitor, single point] | –
COc1cccc(CNc2nc3cc(-c4ccsc4)sc3c(=O)n2C)c1OC | inconclusive: 25.1 µM [inhibitor, single point] | –
CCOC(=O)C(=CNc1cc(C)nn1-c1ccc(Cl)cc1)C(=O)OCC | inconclusive: 17.8 µM [inhibitor, partial curve] | –
Cc1cc(N=Nc2ccccc2C(=O)O)c(C)c(C)c1O | – | inactive: -4.44%
CC1(C)C(=O)NCCN1C(=O)CSc1nccc(-c2ccc(Br)cc2)n1 | inconclusive: 28.2 µM [inhibitor, partial curve, poor fit] | –
O=C1[C@H](Cc2ccccc2)NCCCC[C@H](c2ccco2)N1Cc1ccccc1 | inconclusive: 31.6 µM [inhibitor, single point] | –

SMILES | Potency | activity change, negative = inhibition
CCC(=O)N1CCN(c2ccccc2NC(=O)COc2cc(C)ccc2C(C)C)CC1 | inconclusive: 35.5 µM [inhibitor, single point] | –
O=C(c1ccccc1)N1CCSC1=S | – | inactive: -0.945%
CC(=O)NC1C(OCc2ccccc2)OC(CO)C(OC(C)=O)C1OC(C)=O (stereo not drawn) | inconclusive: 3.16 µM [inhibitor, single point] | –
CCCc1nc2ccc(Br)cn2c1Cc1ccccc1OC | inconclusive: 25.1 µM [inhibitor, partial curve] | –
CCOC(=O)c1sc(=S)n(C)c1NC(=O)c1cccc(Br)c1 | inconclusive: 42.3 µM [inhibitor, single point] | –
Cc1cc(C(=O)CCl)c(C)n1CC1COc2ccccc2O1 (stereo not drawn) | inconclusive: 16.8 µM [inhibitor, partial curve, poor fit] | –
O=c1[nH]c(=O)n([C@H]2C[C@H](O)[C@@H](CO)O2)cc1C(F)(F)F | inconclusive: 2 µM [inhibitor, full curve, poor fit] and active: 2 µM | –
O=C(CNC(=O)c1ccncc1)N/N=C/c1cc(Br)ccc1O | inconclusive: 7.94 µM [inhibitor, partial curve, poor fit] | –
CCOc1ccc(NC(=O)CCCn2c(=S)[nH]c3ccsc3c2=O)cc1 | – | inactive: -13.6%
CN(C)c1ccc(C=c2c3ccccc3n3c2cc(-c2ccccc2)[n+]3C)cc1 | inconclusive: 3.36 µM [inhibitor, full curve, poor fit] | –
CN1C(=S)SC(N(O)C(=O)Nc2ccc(Cl)c(Cl)c2)C1(C)C (stereo not drawn) | – | inactive: -14.5%
Cc1c(C(=O)Nc2cccc(Cl)c2)c2ccccn2c1CCc1ccncc1 | inconclusive: 37.7 µM [inhibitor, single point] | –
CCOC(=O)c1cc(C#N)c(N2CCN(C(=O)c3cccc(C(F)(F)F)c3)CC2)nc1C(F)(F)F | – | inactive: -28.2%
NC(Cc1ccccc1)c1csc(NC(=O)c2cccc(OC(F)(F)F)c2)n1 (stereo not drawn) | inconclusive: 31.6 µM [inhibitor, single point] | –
Cc1ccc(CNC(=O)COC(=O)c2cc3c(s2)CCC(C)C3)cc1 (stereo not drawn) | – | inactive: -12.3%
COc1ccc(CNC(=O)c2sc3nc4c(c(C(F)(F)F)c3c2N)CCC4)cc1OC | – | inactive: -14.4%
COC(=O)CC1C(=O)NCCN1C(=O)Nc1ccccc1 (stereo not drawn) | inconclusive: 35.5 µM [inhibitor, partial curve, poor fit] | –
Cc1csc2ncnc(NNC(=O)c3ccc(Cl)cc3)c12 | inconclusive: 25.1 µM [inhibitor, partial curve, poor fit] | –
CN(C)S(=O)(=O)c1ccc(NC(=O)N2CCN(c3ccccc3Cl)CC2)cc1 | inconclusive: 35.5 µM [inhibitor, partial curve, poor fit] | –
CCC(=O)N1CCN(c2ccnc3cc(Cl)ccc23)CC1 | inconclusive: 3.98 µM [inhibitor, partial curve, poor fit] | –
O=C(COc1ccc(Br)cc1)N/N=C1\SCC(=O)N1c1ccc(F)cc1 | inconclusive: 2.82 µM [inhibitor, partial curve, poor fit] | –

— PubChem BioAssay AID1745845 (National Center for Advancing Translational Sciences (NCATS), 2022)
